This note sets out measurements from article PMC9418238.

Amino acid sequences for entries named in this document (tags omitted).
UniProt Q8N884: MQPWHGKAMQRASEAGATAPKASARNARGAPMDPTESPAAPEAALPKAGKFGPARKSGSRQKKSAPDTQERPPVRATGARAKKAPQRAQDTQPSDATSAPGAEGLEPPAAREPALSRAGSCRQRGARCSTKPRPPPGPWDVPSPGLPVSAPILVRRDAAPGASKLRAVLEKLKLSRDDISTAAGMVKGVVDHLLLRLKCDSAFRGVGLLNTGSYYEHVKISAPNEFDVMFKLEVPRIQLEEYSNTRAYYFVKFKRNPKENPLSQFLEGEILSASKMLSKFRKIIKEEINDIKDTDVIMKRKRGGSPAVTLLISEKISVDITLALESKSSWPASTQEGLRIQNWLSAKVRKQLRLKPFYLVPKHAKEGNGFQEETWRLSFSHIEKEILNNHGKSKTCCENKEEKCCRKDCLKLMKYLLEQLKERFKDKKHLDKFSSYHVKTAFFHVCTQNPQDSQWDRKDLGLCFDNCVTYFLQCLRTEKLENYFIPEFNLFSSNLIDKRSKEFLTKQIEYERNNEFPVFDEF
UniProt Q7Z434: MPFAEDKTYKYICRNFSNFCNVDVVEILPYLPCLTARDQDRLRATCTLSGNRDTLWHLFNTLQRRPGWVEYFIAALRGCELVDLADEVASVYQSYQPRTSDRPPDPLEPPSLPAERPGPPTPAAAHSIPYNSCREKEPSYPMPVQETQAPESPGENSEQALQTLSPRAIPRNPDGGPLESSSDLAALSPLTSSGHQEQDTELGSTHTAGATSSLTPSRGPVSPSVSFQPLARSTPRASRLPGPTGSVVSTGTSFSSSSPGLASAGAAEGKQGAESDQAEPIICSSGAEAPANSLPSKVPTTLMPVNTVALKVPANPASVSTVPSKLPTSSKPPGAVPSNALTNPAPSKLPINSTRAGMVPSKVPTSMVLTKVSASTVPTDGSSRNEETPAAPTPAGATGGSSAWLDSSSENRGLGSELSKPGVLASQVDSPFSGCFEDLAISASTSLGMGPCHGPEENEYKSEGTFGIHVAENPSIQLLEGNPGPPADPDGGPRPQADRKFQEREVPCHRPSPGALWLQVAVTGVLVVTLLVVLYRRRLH

Experiment [1] concerns the target T1, HA-RIG-I (UniProt O95786).
T1 sequence: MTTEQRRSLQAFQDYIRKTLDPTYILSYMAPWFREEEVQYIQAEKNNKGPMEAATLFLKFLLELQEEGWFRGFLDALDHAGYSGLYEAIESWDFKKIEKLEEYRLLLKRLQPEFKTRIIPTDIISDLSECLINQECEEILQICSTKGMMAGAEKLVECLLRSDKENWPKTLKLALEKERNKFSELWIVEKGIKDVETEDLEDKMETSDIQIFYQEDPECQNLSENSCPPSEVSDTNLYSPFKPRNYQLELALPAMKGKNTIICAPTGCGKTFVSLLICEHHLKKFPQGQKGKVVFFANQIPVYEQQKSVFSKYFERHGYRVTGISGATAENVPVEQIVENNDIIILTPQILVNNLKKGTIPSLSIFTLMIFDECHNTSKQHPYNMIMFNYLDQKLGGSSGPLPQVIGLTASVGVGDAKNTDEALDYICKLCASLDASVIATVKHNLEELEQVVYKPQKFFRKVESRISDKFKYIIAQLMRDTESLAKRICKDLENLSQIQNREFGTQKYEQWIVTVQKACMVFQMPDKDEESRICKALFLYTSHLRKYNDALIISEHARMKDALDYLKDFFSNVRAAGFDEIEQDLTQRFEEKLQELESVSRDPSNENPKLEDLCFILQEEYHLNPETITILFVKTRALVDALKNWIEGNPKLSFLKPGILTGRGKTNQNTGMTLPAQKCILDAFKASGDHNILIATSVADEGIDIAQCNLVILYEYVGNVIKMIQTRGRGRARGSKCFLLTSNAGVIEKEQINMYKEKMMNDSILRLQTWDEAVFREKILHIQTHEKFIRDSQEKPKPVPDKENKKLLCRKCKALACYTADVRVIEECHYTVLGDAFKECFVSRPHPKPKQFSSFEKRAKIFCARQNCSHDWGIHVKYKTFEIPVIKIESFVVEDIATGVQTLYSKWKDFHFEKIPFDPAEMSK
Put plainly: co-IP; HEK293T cells cotransfected with GFP-PRMT9 and the HA- or Myc-tagged adaptor; IP-buffer 150 mM NaCl, 1% NP-40, 10 mM Tris-HCl, 1 mM EDTA; immunoblot.

In experiment [2] the target is T2, Myc-MDA5 (UniProt Q9BYX4).
T2 sequence: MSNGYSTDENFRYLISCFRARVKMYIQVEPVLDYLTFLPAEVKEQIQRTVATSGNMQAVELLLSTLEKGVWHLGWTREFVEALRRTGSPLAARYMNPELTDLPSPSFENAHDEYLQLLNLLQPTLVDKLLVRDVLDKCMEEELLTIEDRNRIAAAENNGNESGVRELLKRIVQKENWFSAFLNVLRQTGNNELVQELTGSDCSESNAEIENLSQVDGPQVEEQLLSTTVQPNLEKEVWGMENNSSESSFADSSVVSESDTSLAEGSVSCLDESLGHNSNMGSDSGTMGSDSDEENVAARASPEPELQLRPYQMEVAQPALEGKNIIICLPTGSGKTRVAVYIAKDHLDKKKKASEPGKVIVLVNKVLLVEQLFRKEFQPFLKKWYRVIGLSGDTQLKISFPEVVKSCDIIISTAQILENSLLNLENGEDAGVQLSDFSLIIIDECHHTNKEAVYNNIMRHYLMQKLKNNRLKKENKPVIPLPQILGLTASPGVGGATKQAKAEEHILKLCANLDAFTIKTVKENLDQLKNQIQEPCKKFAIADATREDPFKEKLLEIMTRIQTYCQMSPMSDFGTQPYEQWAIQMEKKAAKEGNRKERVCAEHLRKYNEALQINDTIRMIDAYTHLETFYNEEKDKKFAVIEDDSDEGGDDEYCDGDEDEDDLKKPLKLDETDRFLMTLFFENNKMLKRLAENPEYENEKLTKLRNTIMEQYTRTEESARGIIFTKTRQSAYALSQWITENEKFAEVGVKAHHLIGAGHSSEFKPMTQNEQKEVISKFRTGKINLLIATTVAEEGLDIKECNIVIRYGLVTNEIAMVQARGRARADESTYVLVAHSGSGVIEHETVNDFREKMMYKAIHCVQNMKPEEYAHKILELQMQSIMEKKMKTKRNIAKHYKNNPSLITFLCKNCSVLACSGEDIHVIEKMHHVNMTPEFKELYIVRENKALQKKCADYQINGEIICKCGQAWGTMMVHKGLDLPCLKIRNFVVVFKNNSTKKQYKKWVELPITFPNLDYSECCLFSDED
Described as above.

For experiment [3], the target named is T3, HA-TBKI (TANK-binding kinase 1) (UniProt Q9UHD2).
T3 sequence: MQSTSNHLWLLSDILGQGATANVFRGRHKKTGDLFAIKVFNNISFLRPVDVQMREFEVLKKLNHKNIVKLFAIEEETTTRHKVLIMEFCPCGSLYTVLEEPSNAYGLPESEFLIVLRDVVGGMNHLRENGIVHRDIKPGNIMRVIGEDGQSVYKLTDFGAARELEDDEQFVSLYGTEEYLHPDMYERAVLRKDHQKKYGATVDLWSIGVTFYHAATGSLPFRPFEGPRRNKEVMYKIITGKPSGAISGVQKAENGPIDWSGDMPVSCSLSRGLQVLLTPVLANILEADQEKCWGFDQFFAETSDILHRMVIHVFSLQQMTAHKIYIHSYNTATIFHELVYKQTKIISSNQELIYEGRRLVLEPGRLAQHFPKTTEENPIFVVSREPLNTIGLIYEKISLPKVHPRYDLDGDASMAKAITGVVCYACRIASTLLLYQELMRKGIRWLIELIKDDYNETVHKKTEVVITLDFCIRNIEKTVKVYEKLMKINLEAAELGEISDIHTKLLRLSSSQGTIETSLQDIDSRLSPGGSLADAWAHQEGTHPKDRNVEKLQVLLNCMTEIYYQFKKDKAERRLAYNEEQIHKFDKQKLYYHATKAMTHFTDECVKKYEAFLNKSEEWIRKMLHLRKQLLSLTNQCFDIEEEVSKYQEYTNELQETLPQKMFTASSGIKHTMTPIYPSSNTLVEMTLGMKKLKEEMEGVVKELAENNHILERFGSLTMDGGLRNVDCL
Described as above.

In experiment [4] the target is T4, Myc-IRF3 (UniProt Q14653).
T4 sequence: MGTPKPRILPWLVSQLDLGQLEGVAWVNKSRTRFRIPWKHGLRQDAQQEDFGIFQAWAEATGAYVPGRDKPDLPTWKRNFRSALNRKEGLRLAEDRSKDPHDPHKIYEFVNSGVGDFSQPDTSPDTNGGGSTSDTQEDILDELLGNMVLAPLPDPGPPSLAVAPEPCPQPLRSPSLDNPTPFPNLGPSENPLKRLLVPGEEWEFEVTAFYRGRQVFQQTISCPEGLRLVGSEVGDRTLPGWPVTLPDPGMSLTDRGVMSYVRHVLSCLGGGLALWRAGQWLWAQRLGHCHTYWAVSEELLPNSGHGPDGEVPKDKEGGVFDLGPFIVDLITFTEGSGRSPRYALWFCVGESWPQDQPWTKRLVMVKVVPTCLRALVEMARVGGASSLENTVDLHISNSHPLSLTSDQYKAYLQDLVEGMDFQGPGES
Described as above.

The target in experiment [5] is HA-cGAS (UniProt Q8N884). The description is as above.
Experiment [6] concerns the target HA-MAVS (mitochondrial antiviral signaling protein) (human) (UniProt Q7Z434). The description is as above.
The target in experiment [7] is T5, endogenous MAVS of mouse peritoneal macrophages (mouse (endogenous in peritoneal macrophages)), Q8VCF0.
T5 chain: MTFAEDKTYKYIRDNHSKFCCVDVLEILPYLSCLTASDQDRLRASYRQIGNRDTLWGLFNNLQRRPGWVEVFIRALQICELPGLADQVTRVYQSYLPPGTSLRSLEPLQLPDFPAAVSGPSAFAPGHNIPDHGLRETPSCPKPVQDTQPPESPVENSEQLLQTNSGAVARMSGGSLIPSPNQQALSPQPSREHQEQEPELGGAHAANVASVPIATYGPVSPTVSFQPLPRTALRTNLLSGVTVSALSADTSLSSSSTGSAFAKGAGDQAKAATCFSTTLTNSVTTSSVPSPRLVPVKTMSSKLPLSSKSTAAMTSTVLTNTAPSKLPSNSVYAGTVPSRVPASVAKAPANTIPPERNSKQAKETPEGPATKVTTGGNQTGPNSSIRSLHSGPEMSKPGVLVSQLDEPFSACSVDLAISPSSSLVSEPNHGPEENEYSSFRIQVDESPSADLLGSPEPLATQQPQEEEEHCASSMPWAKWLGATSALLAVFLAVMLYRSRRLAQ
Briefly: semi-denaturing detergent agarose gel electrophoresis (SDD-AGE); crude mitochondria of mouse peritoneal macrophages infected with SeV for 0-8 h; endogenous MAVS. As to conditions: remark: other sources report otherwise.

No constants are given. Whether binding was seen depends on the method and setting. For some of these results: Binding seen in cells or lysates may run through a third protein. Some entries that bind do so weakly or less than the wild type. For some of these results: Sequences can lack the tags named with a protein.

B1: GFP-PRMT9 (protein arginine methyltransferase 9) (enzyme, UniProt Q6P2P2-1 1-845)
chain: MSNSRPRSRRDAGGGAGAAGRDELVSRSLQSAEHCLGVQDFGTAYAHYLLVLSLAPELKHDVKETFQYTLFRWAEELDALSRIQDLLGCYEQALELFPDDEVICNSMGEHLFRMGFRDEAAGYFHKAVKLNPDFSDAKENFYRVANWLVERWHFIMLNDTKRNTIYNAAIQKAVCLGSKSVLDIGAGTGILSMFAKKAGAHSVYACELSKTMYELACDVVAANKMEAGIKLLHTKSLDIEIPKHIPERVSLVVTETVDAGLFGEGIVESLIHAWEHLLLQPKTKGESANCEKYGKVIPASAVIFGMAVECAEIRRHHRVGIKDIAGIHLPTNVKFQSPAYSSVDTEETIEPYTTEKMSRVPGGYLALTECFEIMTVDFNNLQELKSLATKKPDKIGIPVIKEGILDAIMVWFVLQLDDEHSLSTSPSEETCWEQAVYPVQDLADYWIKPGDHVMMEVSCQDCYLRIQSISVLGLECEMDVAKSFTQNKDLLSLGNEAELCSALANLQTSKPDAVEQTCILESTEIALLNNIPYHEGFKMAMSKVLSSLTPEKLYQTMDTHCQNEMSSGTGQSNTVQNILEPFYVLDVSEGFSVLPVIAGTLGQVKPYSSVEKDQHRIALDLISEANHFPKETLEFWLRHVEDESAMLQRPKSDKLWSIIILDVIEPSGLIQQEIMEKAAISRCLLQSGGKIFPQYVLMFGLLVESQTLLEENAVQGTERTLGLNIAPFINQFQVPIRVFLDLSSLPCIPLSKPVELLRLDLMTPYLNTSNREVKVYVCKSGRLTAIPFWYHMYLDEEIRLDTSSEASHWKQAAVVLDNPIQVEMGEELVLSIQHHKSNVSITVKQ
Regarding B1, the binding result is listed as “no binding” in experiment [1]; “no binding” in experiment [2]; “no binding” in experiment [3]; “no binding” in experiment [4]; “no binding” in experiment [5]; “binds” in experiment [6].

B2: endogenous MAVS of mouse peritoneal macrophages, Q8VCF0 1-503 (protein)
chain: MTFAEDKTYKYIRDNHSKFCCVDVLEILPYLSCLTASDQDRLRASYRQIGNRDTLWGLFNNLQRRPGWVEVFIRALQICELPGLADQVTRVYQSYLPPGTSLRSLEPLQLPDFPAAVSGPSAFAPGHNIPDHGLRETPSCPKPVQDTQPPESPVENSEQLLQTNSGAVARMSGGSLIPSPNQQALSPQPSREHQEQEPELGGAHAANVASVPIATYGPVSPTVSFQPLPRTALRTNLLSGVTVSALSADTSLSSSSTGSAFAKGAGDQAKAATCFSTTLTNSVTTSSVPSPRLVPVKTMSSKLPLSSKSTAAMTSTVLTNTAPSKLPSNSVYAGTVPSRVPASVAKAPANTIPPERNSKQAKETPEGPATKVTTGGNQTGPNSSIRSLHSGPEMSKPGVLVSQLDEPFSACSVDLAISPSSSLVSEPNHGPEENEYSSFRIQVDESPSADLLGSPEPLATQQPQEEEEHCASSMPWAKWLGATSALLAVFLAVMLYRSRRLAQ
Regarding B2, in experiment [7], the binding result is “binds”.
